Source: the supplement of paper PMC3334620
Over roughly 33,000 sequences, “E-score (-0.5 to 0.5)” has its median near -0.016; the highest 2% begin near 0.32. This is one part of the list.

target: T1, Stp1 (UniProt B3LFK1); assay: PBM E-score (8-mer binding enrichment) (E-score (-0.5 to 0.5)); higher = stronger / more preferred TF binding; most listed sequences are background and not binding sites; conditions: protein concentration: 200 nM; construct: GST-full length
T1 sequence: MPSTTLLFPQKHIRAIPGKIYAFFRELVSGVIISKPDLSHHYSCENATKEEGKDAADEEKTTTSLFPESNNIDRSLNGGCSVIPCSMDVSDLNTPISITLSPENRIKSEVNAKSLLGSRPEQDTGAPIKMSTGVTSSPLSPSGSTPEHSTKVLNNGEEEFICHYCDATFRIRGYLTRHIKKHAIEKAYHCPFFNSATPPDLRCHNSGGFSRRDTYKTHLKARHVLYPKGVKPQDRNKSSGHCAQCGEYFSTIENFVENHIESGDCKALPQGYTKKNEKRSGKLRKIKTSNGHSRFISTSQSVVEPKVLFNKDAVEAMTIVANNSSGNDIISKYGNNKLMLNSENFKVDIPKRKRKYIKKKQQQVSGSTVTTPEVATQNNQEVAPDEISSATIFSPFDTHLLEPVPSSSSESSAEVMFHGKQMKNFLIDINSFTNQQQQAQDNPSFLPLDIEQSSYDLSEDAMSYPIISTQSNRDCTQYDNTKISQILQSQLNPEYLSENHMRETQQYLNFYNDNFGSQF
How it was run: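 Masliner-normalised scans of fluorescent anti-GST signal were the basis for scoring. That signal came from GST-tagged yeast transcription factors applied at about 100-200 nM to double-stranded universal all-10-mer Agilent arrays on fresh or once-stripped slides. Each ungapped eight-base word, pooled with its reverse complement, received an E-score from the Universal PBM Analysis Suite.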

| Sequence | PBM E-score |
| --- | --- |
| CTCCGGAA | -0.228 |
| ACTATCCG | 0.115 |
| GACTACGC | -0.174 |
| AATTCAAC | 0.164 |
| CGATGGAC | -0.178 |
| ATAACAAG | 0.16 |
| AAAGGTAA | -0.0968 |
| CCAGCCCG | -0.321 |
| TCTTTCCA | -0.122 |
| CCTACAGG | -0.264 |
| CCCTTAGC | -0.176 |
| CGTTAAAC | 0.187 |
| CACTAAAA | 0.123 |
| ATGGAACA | -0.144 |
| AGGGAAAC | -0.162 |
| TATGATCA | 0.0853 |
| GATCCGAA | -0.0145 |
| AGAGGTAA | -0.0671 |
| GATGTAAA | 0.0807 |
| TCGTAACA | 0.0553 |
| AATCCCGT | 0.181 |
| GGCCGCAC | 0.289 |
| ATTACGGA | 0.0935 |
| GGAAAAGA | 0.124 |
| AGGATCTA | -0.119 |

| Sequence | PBM E-score |
| --- | --- |
| GCGGTAAC | 0.245 |
| AAGATCGG | -0.09 |
| AAAACGTG | 0.00312 |
| ACTCAGGA | -0.0219 |
| GCCGCGCA | 0.476 |
| AGAATGGG | -0.147 |
| CCTATGGC | 0.0235 |
| AAACGGTC | 0.0651 |
| AACGAAGA | 0.0103 |
| GGCCGAAA | 0.0894 |
| CTCCTTGC | -0.251 |
| AAAACTGC | 0.0654 |
| CTACAGCC | -0.0221 |
| CTAGGAAC | -0.0557 |
| ACAGGGCC | 0.0285 |
| CGTGGACA | 0.0565 |
| AACCGTTG | -0.0846 |
| CGCATGCG | 0.104 |
| ACGGTCGA | -0.0498 |
| ATCTTTTA | 0.132 |
| GCACGGGC | 0.19 |
| AAAGCCGT | 0.386 |
| CTGAATGA | 0.0815 |
| AGTGCCCG | 0.0388 |
| CTGCGCTC | -0.214 |

| Sequence | PBM E-score |
| --- | --- |
| GCAAGTGC | -0.00995 |
| ATAGAAGG | -0.021 |
| AGCCCCTG | -0.353 |
| AACCCTAA | -0.0589 |
| GACGTCAA | 0.0184 |
| ACGCGTCT | -0.112 |
| AACGGCGC | 0.477 |
| GTCTTTTA | -0.0416 |
| CGTCCGAA | 0.142 |
| CACGGCAG | 0.428 |
| CGTCAGAC | -0.0993 |
| AGATTTTC | 0.0728 |
| ATGATGTG | -0.0485 |
| ATAGGTCC | 0.0708 |
| AACGTAAA | 0.1 |
| GCTTTTAC | 0.0167 |
| GTGAACGA | -0.0319 |
| GACCTAGC | -0.193 |
| GCGGTTAA | -0.0125 |
| CTCGTGAA | -0.0319 |
| CCATCGGA | -0.275 |
| CACGAGAA | -0.0867 |
| GCATAACA | 0.00106 |
| CGATCGAG | 0.0366 |
| ATTGATGC | 0.221 |

| Sequence | PBM E-score |
| --- | --- |
| ACGGTTTA | -0.202 |
| ACTTATCT | -0.039 |
| AGAGGCCG | -0.0748 |
| ATATAAAA | 0.227 |
| CCGGCACA | 0.106 |
| GTTGTTTA | 0.0594 |
| AGGCCAAC | -0.113 |
| CGAGACAC | -0.142 |
| CAGACCGG | -0.211 |
| GCATGGAC | 0.0237 |
| CTGAATCA | -6e-05 |
| ATAAACGA | 0.294 |
| CAACGACG | 0.155 |
| AGCGTGTG | -0.00716 |
| ACGAAGTC | -0.16 |
| ACACTCAT | 0.123 |
| GCGGCCGC | 0.373 |
| CCCTAATC | -0.233 |
| CATGCCCA | -0.249 |
| ACGAAAGG | 0.0262 |
| ACTCTAGA | -0.0596 |
| ATCTTGGA | -0.00943 |
| GAGATGCA | -0.166 |
| ATGCTGGG | -0.279 |
| GCTCACAC | -0.0506 |

| Sequence | PBM E-score |
| --- | --- |
| GGTACGAA | 0.128 |
| AGGCGAAT | 0.172 |
| CAGAGAAA | 0.0637 |
| ATCGTGTC | 0.0255 |
| AATTTACG | 0.206 |
| ACCAGTCG | -0.013 |
| AAGTCGGC | -0.0738 |
| AAACAATC | 0.132 |
| ACGTGAGG | -0.0422 |
| ATTAATGA | 0.156 |
| ATCAGAGG | -0.046 |
| ATACATGG | -0.176 |
| CAATCCCA | -0.303 |
| CGCTTGAA | 0.189 |
| ATCTTTAA | 0.295 |
| ACTTATAT | 0.154 |
| ACAGGCGT | -0.16 |
| AAGGAGCC | -0.0111 |
| AAACTTTC | 0.0425 |
| AGGGGCGC | 0.232 |
| CAAAGCAG | 0.0482 |
| CAAGATTA | 0.0711 |
| CTTGTCTC | -0.0924 |
| CCATGCTC | -0.257 |
| CTCTGTGC | -0.12 |

| Sequence | PBM E-score |
| --- | --- |
| CAAAAGAA | 0.314 |
| AAAGCCCC | -0.112 |
| CGGTGTTC | -0.0565 |
| AGGAGGAG | -0.251 |
| CTTTGATA | 0.171 |
| ATTGTTTC | 0.159 |
| CCCGAGGA | -0.157 |
| ATGTCAGG | -0.141 |
| CAACTGTA | -0.124 |
| CCACTTCG | -0.0462 |
| AGTACACA | 0.0936 |
| GCTTTCGA | -0.0886 |
| CACCTAAC | -0.0743 |
| CTGGTTTA | 0.0191 |
| TCTCGACA | -0.00032 |
| ATTTGCTC | 0.0345 |
| AGATTGTG | -0.0811 |
| ATTGCTCA | 0.0301 |
| CAATCCGG | -0.0143 |
| CAGCTACC | -0.269 |
| AGAGAAAG | -0.196 |
| GCTGAAGA | -0.231 |
| AACAGCTG | -0.0541 |
| AACTGCAC | 0.0976 |
| TCCCGTAA | -0.0808 |

| Sequence | PBM E-score |
| --- | --- |
| CGACGCAG | -0.0856 |
| ACTTCCTC | -0.169 |
| CAGCCCTG | -0.194 |
| CTGGATTC | -0.106 |
| ATACCTCA | -0.0658 |
| ATTACAAC | -0.0195 |
| TAAAGGTA | -0.123 |
| CTTTGATC | -0.121 |
| CACTAAAG | 0.0173 |
| AAGACAAA | 0.119 |
| CAGCGGAC | -0.123 |
| ACATAGAA | 0.0341 |
| ATTTTCAA | 0.124 |
| CGCAACAG | 0.00887 |
| CCCACTTA | 0.18 |
| CCAGATCG | -0.0382 |
| CGTTCCGC | 0.268 |
| CAAACTAC | -0.132 |
| AGCTGCCA | -0.00458 |
| GCTCCCAC | -0.137 |
| CAGTGAAA | 0.179 |
| ATGTCTGA | -0.119 |
